Measurements: PMC5928365
Results are given in words; binding and its absence hold for the method and conditions named. In cells and extracts the contact can be indirect. Some binding calls cover weakened binding; strength is not graded here. For some of these results: Tags and fused reporters may be left off the sequences shown.

What was measured:
[1] = molecular target: Ror2 (human (endogenous in HEK293T)) (UniProt Q01974); experiment: co-IP; Ror2 immunoprecipitated from extracts of control or p120-catenin CRISPR HEK293T cells treated with control or Wnt5a-conditioned medium for 5 min; associated proteins by Western blot
[2] = molecular target: Ror2 (human (endogenous in HEK293T)) (UniProt Q01974); experiment: condition: only cells treated with herbimycin (20 ng·mL^−1); co-IP; Ror2–p120-catenin co-immunoprecipitation from cells treated with the tyrosine kinase inhibitor herbimycin (Fig. S7)
[3] = molecular target: Ror2 (human (endogenous in HEK293T)) (UniProt Q01974); experiment: co-IP; Ror2–p120-catenin co-immunoprecipitation from cells treated with the tyrosine kinase inhibitor herbimycin (Fig. S7)
[4] = molecular target: T1, GST–cytoRor2 (cytoplasmic domain of Ror2, amino acids 426–944) (mouse (from the plasmid name pcDNA-mRor2-HA)) (UniProt Q9Z138); experiment: pull-down; 10 pmol GST–cyto-Ror2 as bait with 700 μg total cell extracts from control, p120-catenin or CK1ε HEK293T CRISPR cells; Western blot; only the target purified
T1 sequence: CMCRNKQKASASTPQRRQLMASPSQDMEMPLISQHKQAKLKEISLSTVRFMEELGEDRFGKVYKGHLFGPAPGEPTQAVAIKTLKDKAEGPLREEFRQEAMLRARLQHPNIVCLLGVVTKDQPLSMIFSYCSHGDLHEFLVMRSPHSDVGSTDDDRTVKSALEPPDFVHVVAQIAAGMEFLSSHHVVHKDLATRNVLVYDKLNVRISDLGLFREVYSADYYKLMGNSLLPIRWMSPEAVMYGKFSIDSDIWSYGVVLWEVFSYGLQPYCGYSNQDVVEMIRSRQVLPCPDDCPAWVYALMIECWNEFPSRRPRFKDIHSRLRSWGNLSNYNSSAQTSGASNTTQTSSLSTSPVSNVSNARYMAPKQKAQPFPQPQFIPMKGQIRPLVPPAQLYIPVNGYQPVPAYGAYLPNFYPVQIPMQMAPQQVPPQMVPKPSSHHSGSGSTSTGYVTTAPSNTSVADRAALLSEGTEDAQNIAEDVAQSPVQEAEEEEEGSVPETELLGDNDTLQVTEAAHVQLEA

binding [1]: binds
binding [2]: no binding
binding [3]: binds
binding [4]: binds
B1: p120-catenin (protein, UniProt O60716 1-968)
chain: MDDSEVESTASILASVKEQEAQFEKLTRALEEERRHVSAQLERVRVSPQDANPLMANGTLTRRHQNGRFVGDADLERQKFSDLKLNGPQDHSHLLYSTIPRMQEPGQIVETYTEEDPEGAMSVVSVETSDDGTTRRTETTVKKVVKTVTTRTVQPVAMGPDGLPVDASSVSNNYIQTLGRDFRKNGNGGPGPYVGQAGTATLPRNFHYPPDGYSRHYEDGYPGGSDNYGSLSRVTRIEERYRPSMEGYRAPSRQDVYGPQPQVRVGGSSVDLHRFHPEPYGLEDDQRSMGYDDLDYGMMSDYGTARRTGTPSDPRRRLRSYEDMIGEEVPSDQYYWAPLAQHERGSLASLDSLRKGGPPPPNWRQPELPEVIAMLGFRLDAVKSNAAAYLQHLCYRNDKVKTDVRKLKGIPVLVGLLDHPKKEVHLGACGALKNISFGRDQDNKIAIKNCDGVPALVRLLRKARDMDLTEVITGTLWNLSSHDSIKMEIVDHALHALTDEVIIPHSGWEREPNEDCKPRHIEWESVLTNTAGCLRNVSSERSEARRKLRECDGLVDALIFIVQAEIGQKDSDSKLVENCVCLLRNLSYQVHREIPQAERYQEAAPNVANNTGPHAASCFGAKKGKDEWFSRGKKPIEDPANDTVDFPKRTSPARGYELLFQPEVVRIYISLLKESKTPAILEASAGAIQNLCAGRWTYGRYIRSALRQEKALSAIADLLTNEHERVVKAASGALRNLAVDARNKELIGKHAIPNLVKNLPGGQQNSSWNFSEDTVISILNTINEVIAENLEAAKKLRETQGIEKLVLINKSGNRSEKEVRAAALVLQTIWGYKELRKPLEKEGWKKSDFQVNLNNASRSQSSHSYDDSTLPLIDRNQKSDKKPDREEIQMSNMGSNTKSLDNNYSTPNERGDHNRTLDRSGDLGDMEPLKGTTPLMQDEGQESLEEELDVLVLDDEGGQVSYPSMQKI
